Laboratory results published in paper PMC6919601, “Identification of Plasmodium dipeptidyl aminopeptidase allosteric inhibitors by high throughput screening” (PLoS ONE, 2019).
Hit rate of the full screen: of about 110,000 compounds, about 230 (0.21%) showed an effect of 50% or more. This is one part of the list.

Biological target: DPAP1 (Plasmodium falciparum, UniProt Q8IIJ9)
Test: primary screen, percent inhibition; read by cleavage of a fluorogenic dipeptide substrate; higher = more effect of the substance
Set-up: species or system P. falciparum D10 trophozoite lysates; single well
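Note: 30 min substrate incubation versus DMSO and 10 µM JCP410 controls.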

Chain of DPAP1 (Q8IIJ9 whole entry, looked up): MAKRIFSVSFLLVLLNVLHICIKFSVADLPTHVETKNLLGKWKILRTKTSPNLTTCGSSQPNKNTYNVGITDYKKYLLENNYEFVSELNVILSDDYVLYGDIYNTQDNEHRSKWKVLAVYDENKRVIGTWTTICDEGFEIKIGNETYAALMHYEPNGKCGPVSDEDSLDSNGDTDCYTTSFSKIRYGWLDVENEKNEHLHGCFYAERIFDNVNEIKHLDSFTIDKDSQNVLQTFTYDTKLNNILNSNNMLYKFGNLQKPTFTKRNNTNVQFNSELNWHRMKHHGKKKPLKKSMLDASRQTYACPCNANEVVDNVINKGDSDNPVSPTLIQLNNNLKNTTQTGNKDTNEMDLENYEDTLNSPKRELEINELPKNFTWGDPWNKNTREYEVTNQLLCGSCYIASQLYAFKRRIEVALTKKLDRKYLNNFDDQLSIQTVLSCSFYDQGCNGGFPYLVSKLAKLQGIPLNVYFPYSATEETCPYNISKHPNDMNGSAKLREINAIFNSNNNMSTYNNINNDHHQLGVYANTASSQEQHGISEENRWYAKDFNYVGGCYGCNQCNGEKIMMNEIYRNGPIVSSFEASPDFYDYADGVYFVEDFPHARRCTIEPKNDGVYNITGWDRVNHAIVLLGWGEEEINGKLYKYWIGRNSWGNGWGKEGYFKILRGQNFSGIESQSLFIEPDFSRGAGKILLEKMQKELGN

| SMILES | % Inhibition @ 10 uM [%] |
| --- | --- |
| CC1(C)C(C=C(Cl)Cl)C1C(=O)Nc1ccc(S(N)(=O)=O)cc1 (stereo not drawn) | 3.44 |
| COC(=O)C1=C(O)/C(=C\c2ccc(-c3cccc(Cl)c3)o2)N=C1C | 2.09 |
| N#CCNC(=O)[C@@H](Cc1cccnc1)NC(=O)OCc1ccccc1 | -3.14 |
| O=C(NCc1ccccc1C(F)(F)F)c1ccc2ccccc2c1 | 1.88 |
| Clc1ccccc1Sc1nc2ccccc2n2cnnc12 | -2.42 |
| O=C1C2C3CCC(C3)C2C(=O)N1c1cc(Cl)ccc1Cl (stereo not drawn) | -4.43 |
| CC(CCc1ccco1)NC(=O)c1cnc(N2CCCC2)nc1 (stereo not drawn) | -4.97 |
| C/C(=C\c1ccco1)C1C(C#N)=C(N)Oc2[nH]nc(-c3ccccc3)c21 (stereo not drawn) | 8.6 |
| N#Cc1c(NC(=O)C2CC2)sc2c1CCCCC2 | 4.57 |
| O=C(CCc1nnc2ccc(N3CCOCC3)nn12)NCC1CCN(Cc2ccc(F)cc2)CC1 | 0.0147 |
| Cc1c(C(=O)NCc2ccccn2)oc2ccc(S(=O)(=O)N3CC(C)CC(C)C3)cc12 (stereo not drawn) | 1.23 |
| Cc1cc(S(=O)(=O)N2CCN=C2c2ccccc2)c(Cl)cc1Cl | -2.98 |
| O=C(CCC1CCCCC1)Nc1ccc(N2CCOCC2)c2nonc12 | -0.994 |
| CC1(C)CC(=O)C2=C(C1)N(c1cccc(O)c1)C(=O)CC2c1ccccc1 (stereo not drawn) | 1.27 |
| Cc1c(C(=O)O)oc2cc(O)ccc12 | -6.52 |
| COc1ccc(-c2cc(C)no2)cc1S(=O)(=O)NCc1ccc2c(c1)OCO2 | -7.06 |
| CCOc1ccc2nc(C)c(C/C=C(/C)Cl)c(Cl)c2c1 | -5.62 |
| COc1cc(CN2CCN(C3CCCCC3)CC2)cc(OC)c1OC | 3.36 |
| CCCN(CCC)C(=O)CSc1nc2nc(C)cc(C)n2n1 | -5.8 |
| CC1=C(C(=O)Nc2ccccc2)C(c2cccc(Br)c2)n2ncnc2N1 (stereo not drawn) | 0.189 |
| COc1ccc(CNc2nc(-c3ccc(Cl)cc3)nn2C(=O)C(C)C)cc1 | 3.93 |
| CC(C)(C)C(/C=C/c1ccc(Cl)cc1Cl)n1nnnc1C(C)(C)N1CCOCC1 (stereo not drawn) | -0.615 |
| COc1ccc(C(=O)OCCN2CCN(C3=NS(=O)(=O)c4ccccc43)CC2)cc1 | 2.17 |
| Nc1ccc(Cl)cc1SCC(=O)O | 9.4 |
| CN1CCN(CCC(=O)Nc2ccc(OC(F)(F)Cl)cc2)CC1 | -1.28 |
| CCOC(=O)N1CCN(Cc2nc3c(c(=O)n(C)c(=O)n3C)n2Cc2cc(C)ccc2C)CC1 | -4.14 |
| COCCNC(=O)c1oc2ccc3c(c2c1C)C(=O)CC(C)(c1ccc(Cl)cc1)O3 (stereo not drawn) | 5.91 |
